Test results: PubChem BioAssay AID488969 (Vanderbilt High Throughput Screening Facility, 2010)
Whole data set: some 110,000 compounds, median “z-score” near -0.1, cut for the highest 2% near 2. Some of the results follow. Active and inactive are the calls of the source.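 The calls were made as follows: active = z-score in the third read window above 3 or below -3; inactive = the rest.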

target: Metabotropic glutamate receptor 8 (Rattus norvegicus) (UniProt P70579); test: mGluR8 Gi/Go-coupled signaling modulation – cell-based, rat, thallium flux, HTS, primary screen (AID 488969); conditions: HEK293 rat mGluR8, GIRK (G protein-gated inwardly rectifying potassium channel) thallium flux, FluoZin2; at 10 µM; stronger effect = higher value; submaximal glutamate (EC20) added with thallium
Chain of UniProt P70579 (P70579 whole entry, looked up): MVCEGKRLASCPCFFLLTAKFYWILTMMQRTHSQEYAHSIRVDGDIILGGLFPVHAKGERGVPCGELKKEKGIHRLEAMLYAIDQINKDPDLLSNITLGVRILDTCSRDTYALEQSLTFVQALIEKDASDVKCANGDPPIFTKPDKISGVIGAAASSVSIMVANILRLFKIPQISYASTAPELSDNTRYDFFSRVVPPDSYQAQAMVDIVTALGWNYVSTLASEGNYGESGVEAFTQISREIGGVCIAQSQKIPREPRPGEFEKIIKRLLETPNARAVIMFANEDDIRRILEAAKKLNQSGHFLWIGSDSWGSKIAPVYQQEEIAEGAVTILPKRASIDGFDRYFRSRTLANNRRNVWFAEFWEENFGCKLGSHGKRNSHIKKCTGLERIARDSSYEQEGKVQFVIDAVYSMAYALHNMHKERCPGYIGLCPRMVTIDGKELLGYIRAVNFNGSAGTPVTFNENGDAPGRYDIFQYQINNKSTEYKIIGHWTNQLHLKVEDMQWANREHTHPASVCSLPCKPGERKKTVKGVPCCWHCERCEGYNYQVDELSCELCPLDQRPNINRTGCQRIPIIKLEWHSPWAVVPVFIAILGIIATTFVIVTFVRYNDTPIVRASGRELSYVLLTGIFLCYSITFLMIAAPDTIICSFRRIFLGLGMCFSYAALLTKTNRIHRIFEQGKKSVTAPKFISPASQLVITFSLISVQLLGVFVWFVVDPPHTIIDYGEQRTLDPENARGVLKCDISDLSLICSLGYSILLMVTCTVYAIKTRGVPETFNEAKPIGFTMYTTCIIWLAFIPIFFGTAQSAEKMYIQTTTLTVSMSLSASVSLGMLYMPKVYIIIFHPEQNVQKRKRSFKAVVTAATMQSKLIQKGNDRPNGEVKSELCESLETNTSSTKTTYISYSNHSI

| SMILES | z-score |
| --- | --- |
| C=CCOc1c(Br)cc(CNn2nnnc2N)cc1OCC | -0.382 |
| Cc1cc(=S)cc(C)n1CCCO | 0.161 |
| CCN1C(=O)N(C)C2(c3ccccc3)N(C)C(=O)N(C)C12c1ccccc1 (centres undefined) | 0.959 |
| CCOC(=O)c1ccc(NC(=O)CSc2nnc(CNC(=O)c3c(F)cccc3Cl)o2)cc1 | 0.605 |
| Cc1nc(NCCN2CCOCC2)c2nnn(Cc3c(F)cccc3Cl)c2n1 | -0.365 |
| COc1ccc(C(=O)Oc2ccc(=O)n(-c3ccccc3)n2)cc1 | -0.0671 |
| Cc1cc(C)n(C(=O)COc2ccccc2C)n1 | -0.319 |
| O=C1c2ccccc2OC2(C=Cc3ccccc3O2)N1Cc1ccccc1 (centres undefined) | 0.198 |
| COc1cc(CNC2CCCC2)cc(Cl)c1OCc1ccccc1F | 2.5 |
| COC(=O)CN(c1ccc2c(c1)OCCO2)S(=O)(=O)c1ccccc1 | 0.274 |
| O=C(NCc1ccccc1)c1ccc2c(c1)C(=O)N(Cc1ccncc1)C2=O | 0.00455 |
| CCOc1ccc(CNC(=S)N/N=C/c2cccnc2)cc1 | 0.216 |
| CCOC(=O)N1CCN(C(=O)Cn2ccc3ccccc3c2=O)CC1 | 0.275 |
| Cc1ccc(C23OC(=O)C(C)(C)C2OC(=O)C3(C)C)cc1 (centres undefined) | -0.382 |
| COc1ccc(/C=N/c2oc(-c3ccccc3)cc2C#N)cc1 | -0.0521 |
| O=C(c1ccco1)N1CCN(C(=O)c2cc(-c3ccccc3)nc3ccccc23)CC1 | 0.86 |
| Clc1ccc(CSc2nnc(-c3c[nH]c4ccccc34)o2)cc1 | -0.158 |
| C=CCNC(=O)c1ccc2nccnc2c1 | 0.0818 |
| CC(=O)c1ccc(Oc2cc(C)nc(NCc3ccccc3)n2)cc1 | 0.293 |
| CCN(CC)CCCC1(CN)OCCc2ccccc21 (centres undefined) | -0.332 |
| CCOC(=O)c1c(C)[nH]c(O)c1C=Nc1ccc(Cl)cc1 | -0.0084 |
| CCCCCCCCN=C1NC(=O)CS1 | -0.334 |
| O=C(CN1C(=O)c2ccccc2S1(=O)=O)NCCC1=CCCCC1 | -0.52 |

| SMILES | z-score |
| --- | --- |
| O=S(=O)(NCC1CCCO1)c1ccc2c(c1)OCCO2 (centres undefined) | -0.00993 |
| O=C(CSCc1ccccc1)NCc1ccc2c(c1)OCO2 | -0.0182 |
| OC(CN(c1ccccc1)c1ccccc1)Cn1cnc2ccccc21 (centres undefined) | -0.2 |
| Cc1cc(C)n(Cc2ccc(C(=O)NCCC3=CCCCC3)o2)n1 | 0.00275 |
| CCOC(=O)c1cc(C#N)c(N2CCCC2)nc1-c1ccccc1 | -0.377 |
| CCOC(=O)c1cc(-c2ccccc2)sc1NC(=O)C(C)OC(=O)c1cccnc1OCC (centres undefined) | 0.0703 |
| Nc1nnc(SCC(=O)Nc2ccc3nc(SCC(=O)Nc4ccccc4)sc3c2)s1 | -0.307 |
| COc1ccccc1/C=C(/CC(=O)NCc1ccc(F)cc1)c1nc2ccccc2s1 | -0.147 |
| Cn1nnnc1SCc1nnc(-c2ccc(F)cc2)o1 | -0.226 |
| CC(C)CC(=O)NC(=S)Nc1nc(-c2ccccc2)cs1 | 0.855 |
| Cc1ccc(NC(=O)C2CC(=O)N/C(=N/N=C/c3ccco3)S2)cc1 (centres undefined) | -0.139 |
| Cc1ccc(/C(N)=N/OC(=O)c2cccc(F)c2)cc1 | -0.182 |
| COc1ccc(NCC(=O)Nc2ccccc2C#N)cc1Cl | -0.204 |
| O=S(=O)(/C=C/c1ccccc1)N1CCN(c2ccccc2)CC1 | 1.11 |
| O=C(NC1(C(F)(F)F)N=C(c2ccccc2)NC1=O)c1ccc(Cl)cc1Cl (centres undefined) | -0.164 |
| Cc1ccc(-c2nc3cc(NC(=O)C(C)C)ccc3o2)cc1 | 0.987 |
| S=c1[nH]nc(COc2ccc(Cl)cc2)n1C1CCCCC1 | 1.31 |
| CC(C(=O)NCc1ccc2c(c1)OCO2)N(c1ccccc1)S(C)(=O)=O (centres undefined) | -0.988 |
| CCn1ncc([N+](=O)[O-])c1C(=O)n1nc(C)cc1C | -0.167 |
| O=C(/C=C/c1ccccc1Cl)NCc1cccs1 | -0.292 |
| CCOC(=O)C1CCN(Cc2cn[nH]c2-c2ccc(C)cc2)CC1 | 0.226 |
| CCCOc1ccc(C(=O)N2CC3(CC(c4cccc(NC(=O)[C@@H]5CCC(=O)N5)c4)=NO3)C[C@H]2C(=O)NC2(C(N)=O)CC2)cc1 (some centres undefined) | -0.0331 |
| Clc1ccccc1Nc1c2c(nc3ncnn13)CCC2 | -0.223 |

| SMILES | z-score |
| --- | --- |
| Cn1c(=O)oc2cc(S(=O)(=O)N3CCC(C(=O)NCc4ccc(F)cc4)CC3)ccc21 | 0.0719 |
| Cc1ccc(OCCNC(=O)/C=C/c2ccc([N+](=O)[O-])cc2)cc1C | 0.0376 |
| Cc1ccc(N2CCN(C(=O)c3ccccc3NC(=O)/C=C\C(=O)O)CC2)cc1 | -0.105 |
| COc1ccc(-c2nc(-n3c(C)c(C(C)=O)c(C(C)=O)c3C)sc2C)cc1 | -0.845 |
| CCNC(=O)NC(=O)COC(=O)CCCSc1nc2ccccc2[nH]1 | active: 3.23 |
| COc1ccc(C2NC(=O)NC(C)=C2C(=O)Nc2cccc(C)c2C)cc1 (centres undefined) | -0.168 |
| O=C(Cn1cnc2ccc(Cl)cc2c1=O)c1cccs1 | 0.277 |
| CCCCN(C)CCNC(=O)c1ccc2c(c1)NC(=O)C(N1CCCCC1)S2 (centres undefined) | 0.0831 |
| Cc1ccc(NC(=O)N(Cc2cccs2)Cc2cc3cc4c(cc3[nH]c2=O)OCO4)cc1 | -0.337 |
| Nc1ccccc1NC(=O)c1ccccc1N | 0.194 |
| Cc1cc(=O)oc2cc(OCC(=O)N3CC(C)OC(C)C3)ccc12 (centres undefined) | -0.122 |
| CCS(=O)(=O)N1CCN(S(=O)(=O)c2ccc(F)cc2)CC1 | -0.0262 |
| Cc1[nH]n(-c2ccccc2)c(=O)c1N=Nc1nccs1 | active: 14.8 |
| N#CCN1CCC/C1=C\[N+](=O)[O-] | -0.0261 |
| FC(F)(F)c1ccccc1NC(=S)NN1CCOCC1 | 0.379 |
| NC(=O)c1cccc2c1C(=O)N(C1CCCCC1)C2 | -0.392 |
| Nc1cc(=O)[nH]c(=S)n1-c1ccccc1 | -0.0667 |
| CCC(=O)NCc1cc(-c2nn(C)c(=O)c3ccccc23)ccc1C | -0.415 |
| COc1cc(OC)c(OC)cc1/C=N/NC(=O)CC1C(=O)NN=C1C (centres undefined) | -0.0262 |
| CCCC(=O)NCCCc1nc2ccccc2n1CCC | 0.81 |
| Cc1ccc(C(=O)CC(=O)c2cc(Cl)ccc2O)cc1 | active: 7.14 |
| Cc1ccc(NC(=O)c2cc(N3C(=O)C4CC=CCC4C3=O)ccc2N2CCOCC2)cc1Cl (centres undefined) | -0.529 |
| O=C1N(CC(=O)N2CCc3ccccc32)CCN1Cc1ccccc1Cl | 0.288 |

| SMILES | z-score |
| --- | --- |
| Cc1nc2cc(-c3cccs3)[nH]n2c(=O)c1C | -0.15 |
| COc1ccc(-c2c(C(C)=O)c(C)nc3sc4c(=O)[nH]nnc4c23)cc1 | -0.191 |
| CCC1CCCCN1CCCn1c(=S)[nH]c2ccccc2c1=O (centres undefined) | active: 7.04 |
| COc1ccc(-c2noc(CSc3nnc(-c4ccncc4)n3-c3ccc(F)cc3)n2)cc1OC | -0.81 |
| NC(=O)c1ccccc1OCC(=O)O | -0.243 |
| Cc1cc(C(F)(F)F)nc(SCC(=O)Nc2ccccc2)n1 | -0.417 |
| CCOC(=O)C1CCCN(c2c(Nc3ccc(OCC)cc3)c(=O)c2=O)C1 (centres undefined) | -0.278 |
| CCOC(=O)C(NCc1ccccc1)(NC(=O)c1ccccc1)C(F)(F)F (centres undefined) | 0.0476 |
| CCOC(=O)c1ccc(NC(=S)NCC(O)c2ccccc2)cc1 (centres undefined) | -0.123 |
| O=C(Nc1nc2ccc(Cl)cc2s1)c1ccc(Br)o1 | active: 6.8 |
| CC(C)(C)C1CCc2c(sc(NC(=O)C3CCCO3)c2C(N)=O)C1 (centres undefined) | -0.0203 |
| Cc1cc(S(=O)(=O)N2CCN=C2c2ccccc2)c(C)cc1Cl | -0.0893 |
| Brc1ccc(C2=Nn3c(nnc3-c3ccncc3)SC2)cc1 | -0.243 |
| CCC(C)N1C(=O)CCC1C(=O)NCc1ccc2c(c1)OCO2 (centres undefined) | -0.368 |
| CCOC(=O)c1c(NC(=O)CSc2n[nH]c(-c3ccco3)n2)sc(C)c1C | -0.662 |
| CS(=O)(=O)N(CC(=O)NC1CCCC1)c1ccc2c(c1)OCCO2 | 0.443 |
| CCCn1c2c(c(O)c(C(=O)Nc3ccc(OC)cc3)c1=O)CCCC2 | -0.197 |
| CN(C)S(=O)(=O)c1c(Cl)cccc1Cl | 1.61 |
| CCC(=O)NCCCOc1ccccc1 | 0.0285 |
| N=c1sccn1CC(=O)N1CCc2ccccc21 | -0.185 |
| Nc1c(N=Nc2ccccc2F)c(=O)[nH]n1-c1ccccc1 | 0.112 |
| NC(=O)CSCc1c(Cl)cccc1Cl | 0.2 |
| O=C(Nc1ccccc1N1CCN(C(=O)c2ccc(Cl)cc2)CC1)c1ccc2c(c1)OCO2 | -0.293 |

| SMILES | z-score |
| --- | --- |
| CC1(C)Cc2c(ccc3ccccc23)C(NNC(=O)c2cccnc2)=N1 | 0.408 |
| CC(=O)CSc1nc2ccccc2s1 | 0.278 |
| Cc1cccc(N(C(=O)Cn2nnc3ccccc32)C(C(=O)NC(C)(C)C)c2ccsc2)c1C (centres undefined) | -0.318 |
| COc1cc2c(cc1OC)C(c1ccc(N(C)C)cc1)CC(=O)N2 (centres undefined) | -0.191 |
| O=C(NCc1ccco1)C1CCCN(S(=O)(=O)c2cccc3nonc23)C1 (centres undefined) | -0.981 |
| CC(=O)c1ccc(OC(=O)N(c2ccccc2)c2ccccc2)cc1 | 2.99 |
| CC(Sc1c[nH]c2ccccc12)C(=O)O (centres undefined) | 1.56 |
| COc1ccc(NCc2nc3ccccc3n2CCOc2ccccc2)cc1 | -0.295 |
| CCn1cc(Br)c(C(=O)NC(C)c2ccccc2)n1 (centres undefined) | -0.307 |
| O=C(Nc1nccs1)C1Cc2ccccc2CN1S(=O)(=O)c1ccc(F)cc1 (centres undefined) | -0.168 |
| O=C(c1cc(-c2ccc(Cl)cc2)n(-c2cc(Cl)ccc2Cl)n1)N1CCOCC1 | -0.562 |
| O=C(NCc1ccco1)c1cccc2ccccc12 | 0.228 |
| Cc1occc1C(=O)Nc1ccc2c(c1)CCC2 | 0.0166 |
| COc1ccc(Cl)cc1NC(=O)COc1cccc(-n2cnnn2)c1 | 0.206 |
| Cc1cccc(NC(=O)Cn2c(=O)n(CCC(=O)NC3CCCC3)c(=O)c3ccccc32)c1 | -0.0709 |
| Cc1cccn2c(=O)c(/C=N/O)c(N3CCCC3)nc12 | active: -3.27 |
| CCCc1cc(=O)[nH]c(SCC(=O)c2cc(C)n(C)c2C)n1 | -0.3 |
| CC1Cc2ccccc2N1C(=O)c1cccnc1 (centres undefined) | -0.00769 |
| Cc1ccc(N2CC(C(=O)Nc3nnc(SCC(=O)Nc4nc(C)cs4)s3)CC2=O)cc1 (centres undefined) | -0.243 |
| CC1CCCCN1S(=O)(=O)c1ccc(C(=O)Nc2ccccc2-c2nc3ccccc3[nH]2)cc1 (centres undefined) | -0.131 |
| O=C(CS(=O)CC(=O)N(CC(=O)NC1CCCC1)c1ccc2c(c1)OCCO2)Nc1ccc(F)cc1 (centres undefined) | 0.905 |
| COCc1c(Br)c(C)[nH]c(=O)c1C#N | -0.261 |
